A word on the % Inhibition: it is the drop in the measured response relative to a control, in per cent.

We go through 85 compounds from ChEMBL document CHEMBL4888484, “Replenishing the malaria drug discovery pipeline: Screening and hit evaluation of the MMV Hit Generation Library 1 (HGL1) against asexual blood stage Plasmodium falciparum ,using a nano luciferase reporter read-out” (2022).

Screen size: about 150,000 compounds; about 540 (0.36%) showed an effect of 50% or more. The list shows a part of the results.

The assay has as its system Plasmodium falciparum. Put plainly: Primary screen in NF54 nanoGlo assay, in single point, at 2uM, 72h; a lower Z score goes with more inhibition. The format is functional, Erythrocyte. The conditions noted are these: timepoint 72 hour.
As for `Cc1nc[nH]c1CN1C[C@H]2CC[C@@H](C1)N(Cc1ccc(-n3ccnc3)cc1)C2`, the “% Inhibition” value is on record as 10% and the Z score was -0.98.
Turning to `CN(Cc1ccccc1)CN1C(=O)C2(OCC(C)(c3ccccc3)CO2)c2ccccc21` (stereo not given), the “% Inhibition” value was -10% and the Z score is 1.27.
Taken in the same sequence, the figures for `O=C(NC1Cc2ccccc2C1)c1cccc(S(=O)(=O)N[C@H]2CCOC2)c1` were -12% and 1.66.
For the compound `COc1ccc(NC(C)=O)cc1NC(=O)N1CC[C@H](Oc2cccc(Cl)c2)C1`, the “% Inhibition” value came out at 31% and the Z score is reported as -3.48.
With `O=C(NCC1CCc2ccccc2CC1)N[C@H]1C[C@H]1C(F)F`, the “% Inhibition” value was -10% and the Z score amounted to 1.64.
The matching figures for `O=C(c1ccc(Br)o1)N1CC[C@H](OCc2cccnc2)C1`: -2% and 0.21.
As to `CC(=Cc1cccc(C=C(C)c2cnccn2)c1)c1cnccn1`, the “% Inhibition” value was determined as 2% and the Z score is reported as -0.42.
As for `Cc1ccc2oc(-c3noc(-c4ccccc4)n3)c(C)c2c1`, the “% Inhibition” value was -7% and the Z score was determined as 0.85.
On to `Cc1csc(CNC(=O)c2coc(COc3cccc(C(F)(F)F)c3)n2)n1`, for which the “% Inhibition” value was 1% and the Z score was -0.07.
Taken in the same sequence, the figures for `CCCn1cc(S(=O)(=O)N[C@@H](CC)Cn2ccnc2)cn1` were -3% and 0.6.
Take `COCCn1c(=O)n([C@H]2CCCN(C(=O)CCc3ccc(OC)cc3)C2)c2ncccc21`: the “% Inhibition” value is listed as -14% and the Z score worked out at 1.9.
Taken in the same sequence, the figures for `Cc1cn2nc(NC3CCCC3)sc2n1` were 4% and -0.71.
Taken in the same sequence, the figures for `CCOC1CC(CO)(NCc2nn(C)cc2C)C1(C)C` (stereo not given) were 31% and -3.91.
For `CN(Cc1ncc(Br)cn1)c1cc(C2CC2)ncn1`, the “% Inhibition” value was determined as 2% and the Z score is recorded as -0.39.
As for `CN(C(=O)CCc1nnc(C2CCCC2)o1)c1ccn(C)n1`, the “% Inhibition” value is recorded as 9% and the Z score is -1.34.
Regarding `Cc1oc(-c2cnn(C)c2)nc1C(=O)N(CC(F)F)c1ccc(F)cc1`, the “% Inhibition” value came to 0% and the Z score was -0.04.
With `O=C(CN1CCCCC1C1CCCCC1O)NC(=O)NC1CCCCC1` (stereo not given), the “% Inhibition” value is 5% and the Z score is -0.8.
The matching figures for `O=C(N[C@H]1CCN(Cc2ccccn2)C[C@@H]1O)C1CCOCC1`: 2% and -0.31.
Consider `Cc1c(Cl)ccc2c1NC(=O)[C@]21N[C@@H](Cc2ccccc2)[C@H]2C(=O)N(Cc3ccccc3)C(=O)[C@H]21`, for which the “% Inhibition” value is 10% and the Z score is -1.29.
As to `Cc1ccccc1N1CCN(C(=O)c2ccc3c(c2)OCCO3)CC1`, the “% Inhibition” value came to 4% and the Z score is recorded as -0.48.
Take `Cc1cccc(C(=O)NC(C)C(C)C(=O)O)c1Cl` (stereo not given): the “% Inhibition” value was 3% and the Z score is recorded as -0.51.
For the compound `O=C(Nc1nccs1)c1ccc2c(c1)C(=O)N(CCc1ccccc1)C2=O`, the “% Inhibition” value came out at 5% and the Z score was -0.88.
Take `CN1CCN(C(=O)N2CCCC[C@@H]2CCc2cccc(O)c2)CC1`: the “% Inhibition” value was -11% and the Z score is given as 1.85.
In the case of `Cc1cccc(C)c1OCC(=O)N(C)C1(C#N)CCC1`, the “% Inhibition” value was -13% and the Z score came to 1.69.
The matching figures for `CN(C[C@H]1COc2ccccc2O1)C(=O)c1ccc2ncccc2c1`: 9% and -1.68.
In the case of `O=S(=O)(c1ccccc1)[C@H]1CCN(S(=O)(=O)C2CC2)C1`, the “% Inhibition” value is listed as -10% and the Z score came out at 1.79.
With `CCOCC(=O)N1CCc2n[nH]c(=O)n2CC1`, the “% Inhibition” value is given as -13% and the Z score is recorded as 1.55.
The matching figures for `Cc1c(NC(=O)N2CCOC[C@@H](CO)C2)cccc1N1CCCC1`: -10% and 1.43.
The matching figures for `CS(=O)(=O)c1ccc2nc(NC(=O)c3cc4c(s3)CCC4)sc2c1`: -6% and 1.18.
Taken in the same sequence, the figures for `O=C(Cc1cn2ccsc2n1)N1CCc2ccccc2C1` were -13% and 1.11.
For the compound `Cc1nnc(Oc2ccc(-n3ncc4ccccc43)cc2)nc1C`, the “% Inhibition” value is -4% and the Z score was 0.49.
Taken in the same sequence, the figures for `CC(Cc1cccc(Cl)c1)C(=O)N1CCN2C(=O)NCC2C1` (stereo not given) were -14% and 2.04.
Regarding `CCCCS(=O)(=O)NCc1csc(N)n1`, the “% Inhibition” value is recorded as -5% and the Z score is 0.58.
Taken in the same sequence, the figures for `Cn1cncc1CN1CCC[C@@H]1C(F)F` were -9% and 1.08.
Regarding `COCC1(O)CN(S(=O)(=O)C2CCC(C(F)(F)F)CC2)C1` (stereo not given), the “% Inhibition” value was found to be 32% and the Z score was -3.57.
The matching figures for `CCCC[C@H](CC)CNS(=O)(=O)c1ccccc1`: -9% and 1.2.
In the case of `O=C(Nc1ccc(C2CC2)cn1)c1cncc(N2CCCC2)n1`, the “% Inhibition” value is given as -2% and the Z score amounted to 0.23.
`CCCN1C(=O)c2ccccc2C(C(=O)N2CCN(CC)CC2)C1c1cc(OC)c(OC)c(OC)c1` (stereo not given): the “% Inhibition” value is -13% and the Z score was 2.36.
Consider `CO[C@@H]1[C@H]2OC(C)(C)O[C@H]2O[C@@H]1C(O)Cn1c(=O)n(CC(O)[C@H]2OC3OC(C)(C)OC3[C@H]2OC)c2ccccc21` (stereo not given in full), for which the “% Inhibition” value was -45% and the Z score stood at 5.32.
`CN1CC[C@@H]2CN(C(=O)C(C)(C)Oc3ccc4c(c3)CCC4)C[C@]2(C(=O)O)C1`: the “% Inhibition” value is on record as -6% and the Z score is recorded as 1.
For the compound `CO[C@H]1CCOC[C@@H]1NC(=O)c1cnn2ncccc12`, the “% Inhibition” value is listed as -12% and the Z score was 1.91.
The matching figures for `Cc1oc(C(=O)N2CC3(CCCC3)c3ccccc32)cc1S(=O)(=O)N(C)C`: 45% and -6.46.
Taken in the same sequence, the figures for `O=C(Cc1csc(-c2ccoc2)n1)Nc1cnn(CCN2CCCCC2)c1` were -14% and 2.56.
Turning to `CC(C)CCC(=O)N1CCC(C(=O)O)C2CCCC21` (stereo not given), the “% Inhibition” value is recorded as -4% and the Z score is 0.68.
Take `CCC(C)C(C)(O)CNC(=O)C1CC1(Cl)Cl` (stereo not given): the “% Inhibition” value came to 1% and the Z score is given as -0.13.
`Nc1ccc2[nH]c(C(F)(F)F)nc(=O)c2c1`: the “% Inhibition” value is given as -13% and the Z score was 1.36.
The matching figures for `O=C(c1cc(Cl)c[nH]1)N1CC(CO)C1`: -20% and 2.89.
In the case of `CC(C)Cn1ccnc1CNS(=O)(=O)N1CCCCC1`, the “% Inhibition” value is given as -10% and the Z score was found to be 1.34.
For `CCOc1ccc(NC(=O)[C@@H]2CCCN2C(=O)c2cccs2)cc1S(=O)(=O)N1CCOCC1`, the “% Inhibition” value is on record as -12% and the Z score is 2.28.
For the compound `Cc1ccc(OCCOCCN(C)C)c(Cl)c1`, the “% Inhibition” value came to 1% and the Z score was -0.12.
Regarding `Cc1cc(C(=O)NC(C)C)ccc1N(C)S(C)(=O)=O`, the “% Inhibition” value is recorded as -4% and the Z score was found to be 0.84.
For the compound `O=C1c2ccccc2C(=O)N1CC#CCN1CCCCC1`, the “% Inhibition” value was -7% and the Z score came to 1.3.
As for `CC(C)n1nnnc1-c1ccccc1NC1CCCCC1`, the “% Inhibition” value is on record as 3% and the Z score is given as -0.32.
On to `NC(=O)COc1cccc2c1CCCN2`, for which the “% Inhibition” value is 16% and the Z score was -2.14.
The matching figures for `Cc1cc(C(=O)N2CCC[C@H]2c2cccs2)ncc1C(N)=O`: -11% and 1.93.
As for `C[C@H](Oc1ccccc1)C(=O)Nc1c(C(=O)Nc2ccc3c(c2)OCO3)oc2ccccc12`, the “% Inhibition” value is 0% and the Z score is given as -0.02.
With `Cc1noc(C)c1[C@@H](C)C(=O)Nc1sccc1S(C)(=O)=O`, the “% Inhibition” value is -19% and the Z score amounted to 2.96.
As for `COc1cccc(COC[C@@H](O)CN2CCOCC2)c1`, the “% Inhibition” value is reported as -10% and the Z score came to 1.42.
Consider `COC(=O)CN(C)C(=O)C[C@]1(c2ccccc2F)CC(=O)N(C2CCCC2)C1=O`, for which the “% Inhibition” value was -6% and the Z score is on record as 0.8.
For `O=C(c1cc(-c2cccc3ccccc23)nc2ccccc12)N1CCN(C(c2ccccc2)c2ccccc2)CC1`, the “% Inhibition” value came to 0% and the Z score worked out at 0.07.
The matching figures for `COc1ccccc1NC(=O)Cn1c(-c2nc(-c3ccc(F)cc3)no2)cccc1=O`: -12% and 1.16.
Regarding `OCCNC1CC(c2ccccc2)Oc2ccccc21` (stereo not given), the “% Inhibition” value was found to be 7% and the Z score is reported as -1.08.
Taken in the same sequence, the figures for `C[C@@H](Cc1cnccn1)NC(=O)CCCN1CCCC1=O` were -4% and 0.52.
Take `O=C1COc2ccc(S(=O)(=O)NC3CCCCCC3)cc2N1`: the “% Inhibition” value is reported as -12% and the Z score amounted to 1.81.
For the compound `CCn1ccc(NS(=O)(=O)c2ccc(C(C)(C)C)nc2)n1`, the “% Inhibition” value is -6% and the Z score stood at 0.69.
As to `O=C(CCc1nnc(C2CCCC2)o1)NC[C@]12C[C@H]1COC21CCC1`, the “% Inhibition” value is on record as 1% and the Z score is listed as -0.12.
Take `O=C(Nc1cccc(Br)c1)Nc1cccc(-c2cc3cc(Cl)ccc3[nH]2)c1`: the “% Inhibition” value is given as 4% and the Z score is reported as -0.44.
On to `CS(=O)(=O)N1CCN(C(=O)CN(Cc2ccccc2)C2CCCCC2)CC1`, for which the “% Inhibition” value was 9% and the Z score is -1.67.
The matching figures for `CC(CCc1cccn1C)NC(=O)[C@H](O)c1ccccc1Cl` (stereo not given in full): -4% and 0.71.
Taken in the same sequence, the figures for `Cn1ccnc1[C@H](NC(=O)CC1(O)CCCC1)c1ccc(F)cc1F` were -4% and 0.69.
On to `CC1=C(C)CN(S(=O)(=O)c2ccc(N3CCCC3=O)cc2)CC1`, for which the “% Inhibition” value was -11% and the Z score stood at 1.78.
As for `COCCN1CC(=O)N[C@H]2CN(c3cc(C4CC4)ncn3)C[C@@H]2OCc2cccc(c2)Oc2cncc(c2)C1=O`, the “% Inhibition” value was -21% and the Z score stood at 4.08.
As for `CC1CC(NC(=O)c2ccncc2Cl)CN1Cc1ccccc1` (stereo not given), the “% Inhibition” value is reported as 6% and the Z score was -0.71.
Regarding `N#Cc1ccccc1CN1CCC[C@H](N2CCCC2)C1=O`, the “% Inhibition” value is on record as -11% and the Z score is listed as 1.41.
Regarding `Cc1noc(C)c1S(=O)(=O)N(CCc1nccs1)C(C)C`, the “% Inhibition” value is listed as 6% and the Z score is -0.77.
Take `CC(C)(C)OC(=O)N[C@H](c1ccccc1)C(C)(C)C(=O)O`: the “% Inhibition” value is listed as -5% and the Z score came out at 0.49.
Consider `CCOc1ccc(NCC(=O)n2nc(C)cc2C)cc1`, for which the “% Inhibition” value came to 2% and the Z score was -0.38.
`COc1ccc(F)c(F)c1C(=O)NC[C@@H](C(C)C)N(C)C`: the “% Inhibition” value is -12% and the Z score is listed as 1.62.
Take `COC(=O)c1ccc(S(C)(=O)=O)cc1NC(=O)COC(C)C`: the “% Inhibition” value is reported as -1% and the Z score is reported as 0.29.
Take `O=C(Cc1c[nH]c2ccccc12)Nc1nc(-c2c(F)cccc2F)cs1`: the “% Inhibition” value was -8% and the Z score is 0.68.
Taken in the same sequence, the figures for `Cc1cccc(C(=O)N2CCC[C@H](n3ccnn3)C2)n1` were -19% and 3.49.
As for `COC1CCN([C@H]2CCC[C@H]2N(C)C(=O)Nc2cc(Cl)ccc2N(C)C)C1` (stereo not given in full), the “% Inhibition” value is listed as -3% and the Z score came to 0.49.
On to `C[C@H]1CC(=O)Nc2ccccc2N1C(=O)CNc1cccc(OCc2ccc(F)cc2)c1`, for which the “% Inhibition” value was -5% and the Z score turned out to be 0.63.
`Clc1cccc(Cc2nc(-c3ccc4nncn4c3)no2)c1`: the “% Inhibition” value is on record as -5% and the Z score was 0.89.
With `CCC1CCC(N[C@H]2CCS(=O)(=O)C2)CC1` (stereo not given in full), the “% Inhibition” value is given as -3% and the Z score turned out to be 0.35.
